{"source": "PubChem BioAssay AID504333", "about": "(National Center for Advancing Translational Sciences (NCATS), 2011)", "note": "The campaign covered roughly 360,000 compounds. About 16,000 (4.4%) were called active. The shares of active, inactive and inconclusive entries below differ from those in the screen. Calls come from the whole dose curve; as a rule, active = well fitted inhibition curve with a large enough effect; inconclusive = small, poorly fitted or top-dose-only effect; inactive = no such curve, though single readings can be large or run the other way. Where the call is inconclusive, the potency comes from a doubtful curve fit. Potency is the fitted concentration of half-maximal effect; tags give direction and shape of the fitted curve."}
{"target": "Bromodomain adjacent to zinc finger domain protein 2B (Homo sapiens) (UniProt Q9UIF8)", "sequence (Q9UIF8 whole entry, looked up, the tested form may be a part)": "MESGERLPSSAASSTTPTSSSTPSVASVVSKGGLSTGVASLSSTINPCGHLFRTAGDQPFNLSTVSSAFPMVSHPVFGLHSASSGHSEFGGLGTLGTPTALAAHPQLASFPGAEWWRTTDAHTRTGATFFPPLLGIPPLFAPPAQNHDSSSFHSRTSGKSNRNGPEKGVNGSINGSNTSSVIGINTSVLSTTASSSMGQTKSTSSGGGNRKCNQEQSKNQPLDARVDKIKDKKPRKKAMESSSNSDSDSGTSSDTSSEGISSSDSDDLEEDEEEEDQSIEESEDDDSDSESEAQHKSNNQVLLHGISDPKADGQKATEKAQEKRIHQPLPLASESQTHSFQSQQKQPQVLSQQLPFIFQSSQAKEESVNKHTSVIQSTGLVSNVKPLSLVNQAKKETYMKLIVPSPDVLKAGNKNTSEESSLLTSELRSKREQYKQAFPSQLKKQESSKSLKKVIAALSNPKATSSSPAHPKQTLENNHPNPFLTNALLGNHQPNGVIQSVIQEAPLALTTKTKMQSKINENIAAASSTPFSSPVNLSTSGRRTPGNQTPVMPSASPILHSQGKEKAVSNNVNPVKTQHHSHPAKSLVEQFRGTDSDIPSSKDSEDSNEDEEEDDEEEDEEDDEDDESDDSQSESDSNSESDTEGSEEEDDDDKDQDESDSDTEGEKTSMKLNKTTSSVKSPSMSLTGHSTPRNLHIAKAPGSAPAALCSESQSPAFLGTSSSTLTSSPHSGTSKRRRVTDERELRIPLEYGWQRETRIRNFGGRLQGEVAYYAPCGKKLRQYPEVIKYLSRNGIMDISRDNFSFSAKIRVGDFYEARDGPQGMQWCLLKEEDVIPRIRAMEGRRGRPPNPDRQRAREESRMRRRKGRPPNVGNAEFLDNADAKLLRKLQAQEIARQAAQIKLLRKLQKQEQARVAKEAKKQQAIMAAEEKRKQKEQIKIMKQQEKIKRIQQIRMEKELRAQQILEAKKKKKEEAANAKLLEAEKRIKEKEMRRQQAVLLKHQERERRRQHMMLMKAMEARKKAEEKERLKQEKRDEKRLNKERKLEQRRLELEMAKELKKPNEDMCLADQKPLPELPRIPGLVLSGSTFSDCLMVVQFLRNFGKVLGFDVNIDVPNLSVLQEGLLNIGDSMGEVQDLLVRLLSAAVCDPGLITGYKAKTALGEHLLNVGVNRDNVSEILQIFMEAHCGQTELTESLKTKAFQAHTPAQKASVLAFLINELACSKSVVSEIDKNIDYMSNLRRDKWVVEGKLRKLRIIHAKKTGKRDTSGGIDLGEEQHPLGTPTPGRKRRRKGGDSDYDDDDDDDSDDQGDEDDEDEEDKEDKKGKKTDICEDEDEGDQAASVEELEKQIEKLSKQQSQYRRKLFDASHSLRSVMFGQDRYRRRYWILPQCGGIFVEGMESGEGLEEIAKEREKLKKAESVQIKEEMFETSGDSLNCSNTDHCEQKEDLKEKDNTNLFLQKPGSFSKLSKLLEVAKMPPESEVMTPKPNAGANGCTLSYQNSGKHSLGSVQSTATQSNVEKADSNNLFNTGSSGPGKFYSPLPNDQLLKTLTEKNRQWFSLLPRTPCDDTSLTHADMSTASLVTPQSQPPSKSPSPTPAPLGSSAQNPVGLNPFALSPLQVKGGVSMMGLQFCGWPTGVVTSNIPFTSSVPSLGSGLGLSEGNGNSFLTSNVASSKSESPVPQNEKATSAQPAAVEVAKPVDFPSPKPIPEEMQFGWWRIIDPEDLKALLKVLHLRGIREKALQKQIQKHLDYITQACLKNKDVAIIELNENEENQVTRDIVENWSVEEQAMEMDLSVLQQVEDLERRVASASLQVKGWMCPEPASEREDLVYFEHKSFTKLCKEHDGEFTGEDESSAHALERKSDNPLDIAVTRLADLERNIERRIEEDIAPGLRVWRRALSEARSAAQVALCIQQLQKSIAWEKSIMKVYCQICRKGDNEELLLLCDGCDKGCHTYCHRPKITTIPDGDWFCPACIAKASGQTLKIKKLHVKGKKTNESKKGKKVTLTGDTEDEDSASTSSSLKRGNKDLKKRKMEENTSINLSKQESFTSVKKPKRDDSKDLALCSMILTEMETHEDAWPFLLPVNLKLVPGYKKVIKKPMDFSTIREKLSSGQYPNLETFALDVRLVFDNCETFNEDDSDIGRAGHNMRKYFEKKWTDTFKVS", "experiment": "qHTS Assay for Inhibitors of BAZ2B; note: nearly all actives have a fitted effect of over 60% in size", "details": "AlphaScreen BAZ2B-H3K14Ac peptide displacement; series mostly up to 114 µM", "outline": "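BAZ2B (50 nM) with biotin-H3(5-23)K14Ac peptide (50 nM) in PBS pH 7.4, 0.01% Tween-20, preformed 30 min, then compound 30 min at room temperature; top concentration 110uM. AlphaScreen streptavidin donor/nickel chelate acceptor beads (10 ug/mL final), 20 min dark, signal read.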"}
{"smiles": "Oc1cccc2c(NC(=S)Nc3ccc(OC(F)F)cc3)cccc12", "Potency": "active: 44.7 µM"}
{"smiles": "C=CCOc1ccc(CN(C)CC(O)COc2cccc3ccccc23)cc1", "note": "(stereo not drawn)", "Potency": "active: 50.1 µM"}
{"smiles": "O=C(NC1CCN(S(=O)(=O)c2ccc(F)cc2)CC1)c1ccco1", "Potency": "inconclusive: 79.4 µM [inhibitor, single point]"}
{"smiles": "COC(=O)c1ccc2nc(C)cc(Nc3ccc(N(C)C)cc3)c2c1", "Potency": "active: 39.8 µM"}
{"smiles": "Cc1cc(C)cc(OCC(=O)Nc2nc3ccc([N+](=O)[O-])cc3s2)c1", "Potency": "inconclusive: 100 µM [inhibitor, single point]"}
{"smiles": "Cn1c(=O)cc(SCC(=O)NCc2ccc(F)cc2)c2cc(Cl)ccc21", "Potency": "inconclusive: 89.1 µM [inhibitor, single point]"}
{"smiles": "COc1cc(/C=C2\\SC(=S)N(CCC(=O)N3CCCCC3)C2=O)cc(OC)c1OC", "Potency": "inconclusive: 14.1 µM [inhibitor, full curve, poor fit]"}
{"smiles": "CC(=O)Nc1ccc(/C=N/NS(=O)(=O)c2cc(C)ccc2C)cc1", "Potency": "inactive"}
{"smiles": "CCCc1nc(SCC(=O)c2ccc(F)cc2)c2ccccc2n1", "Potency": "inactive"}
{"smiles": "COc1ccc(NC2CCCN(C(=O)c3ccc(OC)o3)C2)cc1", "note": "(stereo not drawn)", "Potency": "inconclusive: 70.8 µM [inhibitor, single point]"}
{"smiles": "O=C(NCc1ccncc1)C(=O)Nc1ccc2c(c1)OCO2", "Potency": "inconclusive: 79.4 µM [inhibitor, partial curve]"}
{"smiles": "CC(=O)N(Cc1ccco1)C1(C(=O)NC2CCCC2)CCCCC1", "Potency": "inconclusive: 100 µM [inhibitor, single point]"}
{"smiles": "O=C(Nc1ccc(CN2CCCCC2)cc1)c1c(F)c(F)c(F)c(F)c1F", "Potency": "inactive"}
{"smiles": "COc1ccc(-c2cn3c(n2)sc2cc(C(=O)Nc4ccc(C)c(Cl)c4)ccc23)cc1", "Potency": "inactive"}
{"smiles": "Cc1ccc2nc(-c3ccsc3)c(NC3CCCC3)n2c1", "Potency": "inactive"}
{"smiles": "CCc1ccccc1NC(=O)c1cc(S(=O)(=O)N2CCCC2)c[nH]1", "Potency": "inconclusive: 89.1 µM [inhibitor, single point]"}
{"smiles": "O=C(CSc1nc2ccccc2s1)Nc1cc(S(=O)(=O)N2CCOCC2)ccc1O", "Potency": "inconclusive: 79.4 µM [inhibitor, single point]"}
{"smiles": "CCN(CC)CCn1c(=N)n(CC(O)c2ccc(OC)c(OC)c2)c2ccccc21", "note": "(stereo not drawn)", "Potency": "inconclusive: 89.1 µM [inhibitor, single point]"}
{"smiles": "O=C(O)c1cccc2c1/C(=N/Nc1ccc([N+](=O)[O-])cc1[N+](=O)[O-])c1ccccc1-2", "Potency": "inconclusive: 56.2 µM [inhibitor, partial curve]"}
{"smiles": "CC1(OC(=O)CCc2ccccc2)C(=O)C=C2C=C(c3ccsc3)OC=C2C1=O", "note": "(stereo not drawn)", "Potency": "active: 50.1 µM"}
{"smiles": "CC(=O)c1ccc(NC(=O)CSc2nc(C)cc(C)c2C(N)=O)cc1", "Potency": "inconclusive: 79.4 µM [inhibitor, single point]"}
{"smiles": "COc1ccc(NC(=O)c2ccc(Cl)cc2)c[n+]1[O-]", "Potency": "inactive"}
{"smiles": "CCc1ccc(C(=O)NC(=S)NCc2cccnc2)cc1", "Potency": "inconclusive: 79.4 µM [inhibitor, single point]"}
{"smiles": "COc1ccccc1CNCc1cc(OC)c(OC)c(OC)c1", "Potency": "active: 79.4 µM"}
{"smiles": "CCN=c1scc(-c2cccs2)n1/N=C/c1cc(OC)ccc1O", "Potency": "active: 12.6 µM"}
{"smiles": "COc1ccc(NC2=CC(c3ccccc3)N(c3ccc(OC)cc3)C2=O)cc1", "note": "(stereo not drawn)", "Potency": "inconclusive: 39.8 µM [inhibitor, partial curve]"}
{"smiles": "Cc1ccsc1/C=N/N1CCN(Cc2ccccc2)CC1", "Potency": "inconclusive: 50.1 µM [inhibitor, partial curve]"}
{"smiles": "CCCOc1cccc(C2c3c(oc4ccc(F)cc4c3=O)C(=O)N2CCc2ccc(OC)cc2)c1", "note": "(stereo not drawn)", "Potency": "inactive"}
{"smiles": "CCCn1c(=O)c(C(=O)NCCCc2ccccc2)c(O)c2ccccc21", "Potency": "inactive"}
{"smiles": "Cc1[nH]c2ccccc2c1/C=N/Nc1nc(Nc2ccccc2)nc(N2CCOCC2)n1", "Potency": "active: 39.8 µM"}
{"smiles": "CN1CCC(Oc2ccccc2Sc2ccc(C(F)(F)F)cc2)CC1", "Potency": "active: 79.4 µM"}
{"smiles": "Nc1nc(Nc2ccccc2F)nc(NC2CCCCC2)c1[N+](=O)[O-]", "Potency": "inconclusive: 31.6 µM [inhibitor, full curve]"}
{"smiles": "O=C1C(Cl)=C(Nc2ccccc2)C(=O)c2ccccc21", "Potency": "inconclusive: 2.51 µM [inhibitor, full curve, poor fit]"}
{"smiles": "COc1cccc(CNC(=O)C(=O)NCC(c2ccco2)S(=O)(=O)c2ccccc2)c1", "note": "(stereo not drawn)", "Potency": "inactive"}
{"smiles": "C=C(c1ccccc1)c1ccc(N(C)C)cc1", "Potency": "inconclusive: 31.6 µM [inhibitor, partial curve]"}
{"smiles": "NC(=O)c1ccc(NC(=O)COC(=O)CCCc2c[nH]c3ccccc23)cc1", "Potency": "inconclusive: 79.4 µM [inhibitor, single point]"}
{"smiles": "Cc1ccccc1N(CC(=O)Nc1ccc(S(=O)(=O)N2CCOCC2)cc1)S(C)(=O)=O", "Potency": "inactive"}
{"smiles": "Cc1ccc(NC(=O)CC2OC(=O)c3ccccc32)cc1S(=O)(=O)N1CCCCCC1", "note": "(stereo not drawn)", "Potency": "inactive"}
{"smiles": "COc1ccccc1/C=C/C(=O)/C=C/c1ccccc1O", "Potency": "inconclusive: 44.7 µM [inhibitor, partial curve]"}
{"smiles": "CN(C(=O)c1ccccn1)c1nnc(-c2cnccn2)s1", "Potency": "active: 79.4 µM"}
{"smiles": "O=C(Cn1cnc([N+](=O)[O-])c1)NCc1ccc(F)cc1", "Potency": "inactive"}
{"smiles": "COc1ccc(NC(=O)Cn2c(=O)n(-c3ccc(C)cc3)c(=O)c3c2c2cc(C)ccc2n3C)cc1", "Potency": "inactive"}
{"smiles": "COc1ccc(NC(=O)NCCc2c[nH]c3ccccc23)c(OC)c1", "Potency": "inconclusive: 50.1 µM [inhibitor, partial curve]"}
{"smiles": "COc1cccc(Cn2c(C)c(CNCc3cccc(C)c3)c(C(=O)O)c2C)c1", "Potency": "inconclusive: 89.1 µM [inhibitor, single point]"}
{"smiles": "COC(CNC(=O)C1CCN(C(=O)c2cc3oc(C)cc3n2Cc2c(F)cccc2Cl)CC1)OC", "Potency": "inactive"}
{"smiles": "Cc1ccc(NC(=S)NCc2ccc3[nH]c4c(c3c2)CCCC4)cc1", "Potency": "active: 35.5 µM"}
{"smiles": "Cc1ccc(O)c(C(=O)c2cnc3c(c2)COc2ccc(C)cc2-3)c1", "Potency": "inconclusive: 12.6 µM [inhibitor, full curve]"}
{"smiles": "NC(=O)N1OCC2COc3ccc4ccccc4c3C21", "note": "(stereo not drawn)", "Potency": "inconclusive: 4.47 µM [inhibitor, partial curve, poor fit]"}
